# Where “and” joins values, the source holds several entries; their conditions need not be identical. Identical values can stand only once. The inconclusive results got no clear call from the source; some entries with a clear call stand among them for comparison. Potencies of inconclusive entries are doubtful fits and often do not repeat. Calls of active or inactive are those of the source. Calls come from the whole dose curve; as a rule, active = well fitted curve in the direction sought with a large enough effect; inconclusive = small, poorly fitted or top-dose-only effect, or another doubt; inactive = no such curve, though single readings can be large; an effect the other way counts as inactive or inconclusive.
# Legend:
# [1] = qHTS of pediatric cancer cell lines to identify multiple opportunities for drug repurposing: Primary screen for SK-N-SH cells (AID 1347098); conditions: SK-N-SH viability, CellTiter-Glo luminescence, 48 h; activity change, negative = cytotoxic: at 57 µM (top of the series); note: nearly all actives have a fitted effect of over 65% in size
# Outline: (§1)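 Cells (500-1,000/well) rested 5 h, then received compounds for 48 h; metabolically active cells were measured by CellTiter-Glo luminescence. Final concentrations spanned up to 46 µM (MIPE, 11-point) or 0.59 nM-46 µM (NPC, 8-point) in primary screens, 11-point in follow-ups.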
# [2] = qHTS of pediatric cancer cell lines to identify multiple opportunities for drug repurposing: Primary screen for NB1643 cells (AID 1347099); note: nearly all actives have a fitted effect of over 50% in size
# Outline: (§2)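 Readout: CellTiter-Glo luminescence, 48 h treatment. Controls DMSO (neutral) and bortezomib 2.3 µM final (positive). Potency and efficacy taken from primary-screen concentration-response curves.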
# [3] = qHTS of pediatric cancer cell lines to identify multiple opportunities for drug repurposing: Primary screen for LAN-5 cells (AID 1347100); conditions: LAN-5 neuroblastoma viability, CellTiter-Glo luminescence, 48 h; activity change, negative = cytotoxic: at 46 µM (top of the series)
# Outline: (§3)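 Cells (500-1,000/well) in growth media were settled 5 h at 37 degrees C, then given compounds for 48 h. Viability was read as CellTiter-Glo luminescence. Primary runs used MIPE at 11 points (0.78 nM-46 µM) and NPC at 8 points (0.59 nM-46 µM); follow-ups used 11 points.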
# [4] = qHTS of pediatric cancer cell lines to identify multiple opportunities for drug repurposing: Primary screen for RD cells (AID 1347104); note: nearly all actives have a fitted effect of over 55% in size
# Outline: as §2
# [5] = qHTS of pediatric cancer cell lines to identify multiple opportunities for drug repurposing: Primary screen for OHS-50 cells (AID 1347103); note: nearly all actives have a fitted effect of over 40% in size
# Outline: as §1
# [6] = qHTS of pediatric cancer cell lines to identify multiple opportunities for drug repurposing: Primary screen for BT-12 cells (AID 1347101); note: nearly all actives have a fitted effect of over 25% in size
# Outline: as §1
# [7] = qHTS of pediatric cancer cell lines to identify multiple opportunities for drug repurposing: Primary screen for Rh18 cells (AID 1347102); note: nearly all actives have a fitted effect of over 65% in size
# Outline: as §3
# Potency is the fitted concentration of half-maximal effect; tags give direction and shape of the fitted curve.
structure (smiles),measurement,setting,value
c1cnc2cc3c(cc2n1)C1CNCC3C1,Potency,[1],inactive
same,Potency,[2],"inconclusive: 0.833 µM [cytotoxic, full curve]"
same,Potency,[3],"inconclusive: 37.2 µM [cytotoxic, single point]"
same,Potency,[4],inactive
O=C(O)c1ccc(-c2c[nH]c3ncc(-c4ccccc4)cc23)cc1C1CCCC1,Potency,[1],"inconclusive: 6.07 µM [cytotoxic, partial curve]"
same,Potency,[2],"inconclusive: 26.4 µM [cytotoxic, single point]"
same,Potency,[3],"inconclusive: 2.64 µM [cytotoxic, full curve]"
same,Potency,[5],"inconclusive: 19.3 µM [cytotoxic, partial curve]"
same,Potency,[4],"inconclusive: 9.35 µM [cytotoxic, partial curve]"
c1coc(CNc2ncnc3nc[nH]c23)c1,Potency,[1],inactive
same,Potency,[6],inactive
COc1ccc(Cc2ccc(NC(N)=O)cc2)cc1-c1cccc(Cl)c1,Potency,[1],"inconclusive: 30.4 µM [cytotoxic, single point]"
same,Potency,[3],"inconclusive: 37.2 µM [cytotoxic, single point]"
same,Potency,[6],inactive
Cc1ccc(Nc2cc(-c3cccc(N4C(=O)c5ccccc5C4=O)c3)ncn2)cc1NS(C)(=O)=O,Potency,[1],"inconclusive: 17.1 µM [cytotoxic, partial curve]"
same,Potency,[2],"inconclusive: 29.6 µM [cytotoxic, single point]"
same,Potency,[6],"inconclusive: 24.3 µM [cytotoxic, partial curve]"
same,Potency,[5],"inconclusive: 43.2 µM [cytotoxic, single point]"
same,Potency,[4],"inconclusive: 29.6 µM [cytotoxic, single point]"
C#C[C@]1(O)CC[C@H]2[C@H]3CCc4cc(OC)ccc4[C@H]3CC[C@@]21C,Potency,[1],"inconclusive: 19.2 µM [cytotoxic, partial curve]"
same,Potency,[2],"inconclusive: 20.9 µM [cytotoxic, single point]"
same,Potency,[4],"inconclusive: 37.2 µM [cytotoxic, single point]"
Cn1c(=O)c2[nH]cnc2n(C)c1=O,Potency,[1],"inconclusive: 34.1 µM [cytotoxic, single point]"
same,Potency,[2],"inconclusive: 10.5 µM [cytotoxic, partial curve, poor fit]"
same,Potency,[3],inactive
same,Potency,[5],inactive
NC[C@@H]1O[C@@H](O[C@H]2[C@@H](O)[C@H](O[C@@H]3[C@@H](O)[C@@H](N)C[C@H](N)[C@H]3O[C@H]3O[C@H](CN)[C@@H](O)[C@@H](O)[C@H]3N)O[C@H]2CO)[C@H](N)[C@@H](O)[C@@H]1O,Potency,[2],inactive
same,Potency,[3],inactive
same,Potency,[5],inactive
CC[C@H]1OC(=O)[C@H](C)C(=O)[C@H](C)[C@@H](O[C@H]2O[C@H](C)C[C@H](N(C)C)[C@@H]2O)[C@](C)(OC)C[C@@H](C)C(=O)[C@H](C)[C@H]2N(CCCCn3cnc(-c4cccnc4)c3)C(=O)O[C@]12C,Potency,[2],"inconclusive: 26.4 µM [cytotoxic, single point]"
same,Potency,[3],"inconclusive: 10.5 µM [cytotoxic, partial curve, poor fit]"
same,Potency,[6],"inconclusive: 21.7 µM [cytotoxic, partial curve, poor fit]"
CC[C@H]1OC(=O)[C@H](C)[C@@H](O[C@H]2C[C@@](C)(OC)[C@@H](O)[C@H](C)O2)[C@H](C)[C@@H](O[C@@H]2O[C@H](C)C[C@H](N(C)C)[C@H]2O)[C@](C)(O)C[C@H](C)C(=NOCOCCOC)[C@H](C)[C@@H](O)[C@]1(C)O,Potency,[2],"inconclusive: 13.2 µM [cytotoxic, partial curve, poor fit]"
same,Potency,[3],inactive
same,Potency,[5],"inconclusive: 24.3 µM [cytotoxic, partial curve]"
N[C@@]1(C(=O)O)CS(=O)(=O)[C@H]2[C@H](C(=O)O)[C@H]21,Potency,[2],"inconclusive: 16.6 µM [cytotoxic, partial curve]"
same,Potency,[3],"inconclusive: 23.5 µM [cytotoxic, single point]"
same,Potency,[6],"inconclusive: 27.3 µM [cytotoxic, single point]"
same,Potency,[5],"inconclusive: 21.7 µM [cytotoxic, partial curve]"
COC(=O)N1CCN(Cc2cccc(NC(=O)Nc3ccc(C)nc3)c2F)CC1,Potency,[2],"inconclusive: 0.418 µM [cytotoxic, partial curve]"
same,Potency,[3],inactive
same,Potency,[6],"inconclusive: 27.3 µM [cytotoxic, partial curve]"
same,Potency,[5],"inconclusive: 24.3 µM [cytotoxic, partial curve, poor fit]"
CC1(C)SCCN(S(=O)(=O)c2ccc(OCC#CCO)cc2)[C@@H]1C(=O)NO,Potency,[1],"inconclusive: 21.5 µM [cytotoxic, partial curve, poor fit]"
same,Potency,[6],inactive
same,Potency,[5],inactive
O=C(C1CCCCC1)N1CC(=O)N2CCc3ccccc3C2C1 (stereo not drawn),Potency,[2],inactive
same,Potency,[3],inactive
same,Potency,[4],inactive
CC(C)(OCc1nn(Cc2ccccc2)c2ccccc12)C(=O)O,Potency,[1],active: 30.4 µM
same,Potency,[7],inactive
C[C@@]1(c2cc(-c3cncnc3)c(F)cc2F)CCSC(N)=N1,Potency,[2],"inconclusive: 2.09 µM [cytotoxic, full curve]"
same,Potency,[3],active: 3.72 µM
same,Potency,[6],active: 3.85 µM
same,Potency,[5],active: 2.73 µM
C=C(C)[C@@H]1CC[C@]2(C)CC[C@]3(C)[C@H](CC[C@@H]4[C@@]5(C)CC[C@H](O)C(C)(C)[C@H]5CC[C@]43C)[C@@H]12,Potency,[2],inactive
NC(=O)c1ccc(N(C(N)=O)c2c(F)cccc2F)nc1-c1ccc(F)cc1F,Potency,[1],"inconclusive: 27.1 µM [cytotoxic, partial curve]"
same,Potency,[5],"inconclusive: 1.37 µM [cytotoxic, full curve]"
COc1ccc2cccc(CCNC(C)=O)c2c1,Potency,[2],"inconclusive: 18.7 µM [cytotoxic, partial curve]"
NS(=O)(=O)c1cc2c(cc1Cl)NCNS2(=O)=O,Potency,[2],"inconclusive: 20.9 µM [cytotoxic, partial curve, poor fit]"
Nc1nc(-c2nn(Cc3ccccc3F)c3ncccc23)nc(N)c1N1CCOCC1,Potency,[1],inactive
same,Potency,[5],"inconclusive: 30.6 µM [cytotoxic, single point]"
C1Cc2[nH]nc(-c3nn[nH]n3)c2C1,Potency,[2],"inconclusive: 18.7 µM [cytotoxic, partial curve]"
O=C(N[C@H](CO)[C@H](O)c1ccc([N+](=O)[O-])cc1)C(Cl)Cl,Potency,[1],"inconclusive: 15.7 nM [cytotoxic, full curve, poor fit] and inconclusive: 30.4 µM [cytotoxic, partial curve, poor fit]"
same,Potency,[6],"inconclusive: 12.6 µM [cytotoxic, partial curve, poor fit]"
same,Potency,[5],inactive
O=P(O)(O)C(O)(Cn1ccnc1)P(=O)(O)O,Potency,[2],inactive
same,Potency,[3],inactive
same,Potency,[7],inactive
same,Potency,[4],inactive
O=c1[nH]cnc2c1ncn2[C@H]1CC[C@@H](CO)O1,Potency,[2],"inconclusive: 29.6 µM [cytotoxic, single point]"
same,Potency,[6],inactive
Cc1noc(NS(=O)(=O)c2ccc(N)cc2)c1C,Potency,[2],"inconclusive: 11.8 µM [cytotoxic, partial curve]"
CC(C)n1cnc2c(NCCCCCCNC(=O)OC(C)(C)C)nc(NCCO)nc21,Potency,[2],inactive
same,Potency,[3],"inconclusive: 11.8 µM [cytotoxic, partial curve]"
same,Potency,[6],"inconclusive: 19.3 µM [cytotoxic, partial curve]"
same,Potency,[5],"inconclusive: 19.3 µM [cytotoxic, partial curve]"
CN(C)N=Nc1nc[nH]c1C(N)=O,Potency,[2],"inconclusive: 13.2 µM [cytotoxic, partial curve]"
same,Potency,[3],"inconclusive: 13.2 µM [cytotoxic, partial curve]"
same,Potency,[6],"inconclusive: 8.63 µM [cytotoxic, partial curve, poor fit]"
OC[C@H]1O[C@@H](Oc2cc(O)cc(C=Cc3ccc(O)cc3)c2)[C@H](O)[C@@H](O)[C@H]1O,Potency,[1],"inconclusive: 34.1 µM [cytotoxic, partial curve, poor fit]"
same,Potency,[5],"inconclusive: 24.3 µM [cytotoxic, single point]"
O=c1[nH]c(=O)n([C@H]2C[C@@H](O)[C@@H](CO)O2)cc1C=CBr,Potency,[1],"inconclusive: 38.3 µM [cytotoxic, single point]"
same,Potency,[7],inactive
CCCc1cc(=O)[nH]c(=S)[nH]1,Potency,[2],"inconclusive: 2.96 µM [cytotoxic, full curve, poor fit]"
NC(=O)NN=Cc1ccc([N+](=O)[O-])o1,Potency,[2],"inconclusive: 20.9 µM [cytotoxic, single point]"
same,Potency,[3],"inconclusive: 33.2 µM [cytotoxic, single point]"
same,Potency,[6],"inconclusive: 24.3 µM [cytotoxic, partial curve, poor fit]"
COc1ccc(CC2SC(=O)NC2=O)cc1C(=O)NCc1ccc(C(F)(F)F)cc1 (stereo not drawn),Potency,[2],"inconclusive: 18.7 µM [cytotoxic, partial curve]"
same,Potency,[6],"inconclusive: 21.7 µM [cytotoxic, partial curve, poor fit]"
N=C1SC(=Cc2ccc(-c3ccc4c(c3)C(=O)NC4=O)o2)C(=O)N1c1ccc(Br)cc1,Potency,[2],"inconclusive: 26.4 µM [cytotoxic, single point]"
same,Potency,[3],"inconclusive: 18.7 µM [cytotoxic, partial curve, poor fit]"
same,Potency,[5],"inconclusive: 19.3 µM [cytotoxic, partial curve]"
CC[C@@H]1C=C(C)C[C@H](C)C[C@H](OC)[C@H]2O[C@@](O)(C(=O)C(=O)N3CCCC[C@@H]3C(=O)O[C@H](C(C)=C[C@@H]3CC[C@H](Cl)[C@H](OC)C3)[C@H](C)[C@@H](O)CC1=O)[C@H](C)C[C@H]2OC,Potency,[2],"inconclusive: 26.4 µM [cytotoxic, single point]"
same,Potency,[3],active: 11.8 µM
same,Potency,[6],"inconclusive: 12.2 µM [cytotoxic, partial curve]"
same,Potency,[7],"inconclusive: 18.7 µM [cytotoxic, partial curve]"
same,Potency,[4],"inconclusive: 18.7 µM [cytotoxic, partial curve]"

# Source: PubChem BioAssay (NCATS)
